This test has as its system MLKL phosphorylation, HT29-L23 human colorectal adenocarcinoma cells. The test is described as follows: cells. The conditions noted are these: read-out: pMLKL HCS Cell Assay (IC50, uM).
For the molecule `Cc1ncc(-c2cc(C(F)(F)F)c3c(N)ncnn23)cc1C(=O)Nc1ncn(Cc2ccccc2)c1C` [Example 1797, 5-(4-amino-5-(trifluoromethyl)pyrrolo[2,1-f][1,2,4]triazin-7-yl)-N-(1-benzyl-5-methyl-1H-imidazol-4-yl)-2-methylnicotinamide], the IC50 (in general, the concentration at which inhibition is half-maximal) turned out to be 0.0084 µM.

`Cc1ncc(-c2cc(C(F)(F)F)c3c(N)ncnn23)cc1C(=O)N1CCC[C@@H](Cc2cccc(F)c2)C1` [Example 173, 7-{5-[(3S)-3-[(3-fluorophenyl)methyl]piperidine-1-carbonyl]-6-methylpyridin-3-yl}-5-(trifluoromethyl)pyrrolo[2,1-f][1,2,4]triazin-4-amine]: the IC50 was 0.0057 µM. In the case of `COc1cc(F)c(-c2cc(C(F)(F)F)c3c(N)ncnn23)cc1C(=O)N[C@@H]1CN(C(=O)C2CC(F)(F)C2)C[C@@H]1F` [Example 568, 5-[4-amino-5-(trifluoromethyl)pyrrolo[2,1-f][1,2,4]triazin-7-yl]-N-[(3R,4S)-1-(3,3-difluorocyclobutanecarbonyl)-4-fluoropyrrolidin-3-yl]-4-fluoro-2-methoxybenzamide] it was 0.0052 µM; in that of `Nc1ncnn2c(-c3ccc(C(F)(F)F)c(C(=O)N[C@@H]4CN(C(=O)C5(F)CC5)C[C@@H]4F)c3)cc(C(F)(F)F)c12` [Example 890, 5-[4-amino-5-(trifluoromethyl)pyrrolo[2,1-f][1,2,4]triazin-7-yl]-N-[(3R,4S)-4-fluoro-1-(1-fluorocyclopropanecarbonyl)pyrrolidin-3-yl]-2-(trifluoromethyl)benzamide], 0.092 µM; in that of `COc1ncc(-c2cc(C(F)(F)F)c3c(N)ncnn23)cc1C(=O)N[C@@H]1CN(S(=O)(=O)/C=C\F)C[C@@H]1F` [Example 1468, 5-[4-amino-5-(trifluoromethyl)pyrrolo[2,1-f][1,2,4]triazin-7-yl]-N-[(3R,4S)-4-fluoro-1-[(Z)-2-fluoroethenesulfonyl]pyrrolidin-3-yl]-2-methoxypyridine-3-carboxamide], 0.278 µM. For `COc1ncc(-c2cc(C(F)(F)F)c3c(N)ncnn23)cc1C(=O)NC1CN(C(=O)C2CC(F)(F)C2)CC1(F)F` (stereo not drawn) [Example 1345, 5-[4-amino-5-(trifluoromethyl)pyrrolo[2,1-f][1,2,4]triazin-7-yl]-N-[1-(3,3-difluorocyclobutanecarbonyl)-4,4-difluoropyrrolidin-3-yl]-2-methoxypyridine-3-carboxamide] the value was 0.031 µM; for `CC(C)(C)OC(=O)N1CC[C@H](NC(=O)c2cc(-c3cc(C(F)(F)F)c4c(N)ncnn34)ccc2F)C1` [Example 251, tert-butyl (3S)-3-{5-[4-amino-5-(trifluoromethyl)pyrrolo[2,1-f][1,2,4]triazin-7-yl]-2-fluorobenzamido}pyrrolidine-1-carboxylate], 0.223 µM.

Regarding `Cc1cc(F)c(-c2cc(C(F)(F)F)c3c(N)ncnn23)cc1C(=O)N[C@@H]1CN(C(=O)C(C)(F)C(F)(F)F)C[C@@H]1F` (stereo partly drawn) [Example 863, 5-[4-amino-5-(trifluoromethyl)pyrrolo[2,1-f][1,2,4]triazin-7-yl]-4-fluoro-N-[(3R,4S)-4-fluoro-1-(2,3,3,3-tetrafluoro-2-methylpropanoyl)pyrrolidin-3-yl]-2-methylbenzamide], the IC50 stood at 0.0083 µM. For `COc1ncc(-c2cc(C(F)(F)F)c3c(N)ncnn23)cc1C(=O)N[C@@H]1CN(S(=O)(=O)C2CCOCC2)C[C@@H]1F` [Example 1485, 5-[4-amino-5-(trifluoromethyl)pyrrolo[2,1-f][1,2,4]triazin-7-yl]-N-[(3R,4S)-4-fluoro-1-(oxane-4-sulfonyl)pyrrolidin-3-yl]-2-methoxypyridine-3-carboxamide] the value was 0.0066 µM; for `COc1ncc(-c2cc(C(F)(F)F)c3c(N)ncnn23)cc1C(=O)N[C@@H]1CN(C(=O)[C@@](C)(OC)C(F)(F)F)C[C@@H]1F` [Example 1230, 5-[4-amino-5-(trifluoromethyl)pyrrolo[2,1-f][1,2,4]triazin-7-yl]-N-[(3R,4S)-4-fluoro-1-[(2R)-3,3,3-trifluoro-2-methoxy-2-methylpropanoyl]pyrrolidin-3-yl]-2-methoxypyridine-3-carboxamide], 0.01 µM. In the case of `COc1ccc(C)cc1S(=O)(=O)N1C[C@H](F)[C@H](NC(=O)c2cc(-c3cc(C(F)(F)F)c4c(N)ncnn34)cnc2OC)C1` [Example 1475, 5-[4-amino-5-(trifluoromethyl)pyrrolo[2,1-f][1,2,4]triazin-7-yl]-N-[(3R,4S)-4-fluoro-1-(2-methoxy-5-methylbenzenesulfonyl)pyrrolidin-3-yl]-2-methoxypyridine-3-carboxamide] it was 0.191 µM; in that of `[2H]C([2H])([2H])Oc1ncc(-c2cc(CN3CC(F)(F)C3)c3c(N)ncnn23)cc1C(=O)N[C@@H]1CN(C(=O)C(C)(C)C(F)(F)F)C[C@@H]1F` [Example 1276, 5-{4-amino-5-[(3,3-difluoroazetidin-1-yl)methyl]pyrrolo[2,1-f][1,2,4]triazin-7-yl}-N-[(3R,4S)-4-fluoro-1-(3,3,3-trifluoro-2,2-dimethylpropanoyl)pyrrolidin-3-yl]-2-(methoxy-d3)nicotinamide], 0.00064 µM; in that of `COc1ncc(-c2cc(Cn3ncnn3)c3c(N)ncnn23)cc1C(=O)N[C@@H]1CN(C(=O)C2CC(F)(F)C2)C[C@@H]1F` [Example 1711, 5-(5-((2H-tetrazol-2-yl)methyl)-4-aminopyrrolo[2,1-f][1,2,4]triazin-7-yl)-N-((3R,4S)-1-(3,3-difluorocyclobutane-1-carbonyl)-4-fluoropyrrolidin-3-yl)-2-methoxynicotinamide], 0.016 µM. For `COc1ncc(-c2c(F)cc3c(N)ncnn23)cc1C(=O)N[C@@H]1CN(C(=O)C2CCC(F)CC2)C[C@@H]1F` (stereo partly drawn) [Example 513, 5-{4-amino-6-fluoropyrrolo[2,1-f][1,2,4]triazin-7-yl}-N-[(3R,4S)-4-fluoro-1-(4-fluorocyclohexanecarbonyl)pyrrolidin-3-yl]-2-methoxypyridine-3-carboxamide] the value was 0.184 µM; for `CCC(O)(C(=O)N1C[C@H](F)[C@H](NC(=O)c2c(F)ccc(-c3cc(C(F)(F)F)c4c(N)ncnn34)c2F)C1)C(F)(F)F` (stereo partly drawn) [Example 729, 3-[4-amino-5-(trifluoromethyl)pyrrolo[2,1-f][1,2,4]triazin-7-yl]-2,6-difluoro-N-[(3R,4S)-4-fluoro-1-[2-hydroxy-2-(trifluoromethyl)butanoyl]pyrrolidin-3-yl]benzamide], 0.08 µM. Regarding `Nc1ncnn2c(-c3ccc(CF)c(C(=O)N[C@@H]4CN(C(=O)C5CCC(F)(F)CC5)C[C@@H]4F)c3)cc(C(F)(F)F)c12` [Example 918, 5-[4-amino-5-(trifluoromethyl)pyrrolo[2,1-f][1,2,4]triazin-7-yl]-N-[(3R,4S)-1-(4,4-difluorocyclohexanecarbonyl)-4-fluoropyrrolidin-3-yl]-2-(fluoromethyl)benzamide], the 50% inhibitory concentration (IC50) was found to be 0.0046 µM. For `COc1ncc(-c2cc(C)c3c(N)ncnn23)cc1C(=O)N[C@@H]1CN(C(=O)[C@@](C)(O)C(F)(F)F)C[C@@H]1F` [Example 1593, 5-{4-amino-5-methylpyrrolo[2,1-f][1,2,4]triazin-7-yl}-N-[(3R,4S)-4-fluoro-1-[(2R)-3,3,3-trifluoro-2-hydroxy-2-methylpropanoyl]pyrrolidin-3-yl]-2-methoxypyridine-3-carboxamide] the value was 0.01 µM. In the case of `COc1ncc(-c2cc(C(F)(F)F)c3c(N)ncnn23)cc1C(=O)N[C@@H]1CN(C(=O)C2CCCCC2)C[C@@H]1C` [Example 296, 5-[4-amino-5-(trifluoromethyl)pyrrolo[2,1-f][1,2,4]triazin-7-yl]-N-[(3S,4S)-1-cyclohexane-carbonyl-4-methylpyrrolidin-3-yl]-2-methoxypyridine-3-carboxamide] it was 0.063 µM; in that of `Cc1cc(F)c(-c2cc(C(F)(F)F)c3c(N)ncnn23)cc1C(=O)N[C@@H]1CN(C(=O)C2CCC2)C[C@@H]1F` [Example 791, 5-[4-amino-5-(trifluoromethyl)pyrrolo[2,1-f][1,2,4]triazin-7-yl]-N-[(3R,4S)-1-cyclobutanecarbonyl-4-fluoropyrrolidin-3-yl]-4-fluoro-2-methylbenzamide], 0.004 µM.

Turning to `COc1ncc(-c2cc(C(F)(F)F)c3c(N)ncnn23)cc1C(=O)NC1CC/C(=N\OCc2ccccc2)C1` (stereo not drawn) [Example 1684, (E)-5-(4-amino-5-(trifluoromethyl)pyrrolo[2,1-f][1,2,4]triazin-7-yl)-N-(3-((benzyloxy)imino)cyclopentyl)-2-methoxynicotinamide], the IC50 came out at 0.235 µM. In the case of `Cc1ccc(-c2cc(CN3CCC(F)(F)CC3)c3c(N)ncnn23)cc1C(=O)N[C@@H]1CN(C(=O)CC(O)(C(F)(F)F)C(F)(F)F)C[C@@H]1F` [Example 1642, 5-{4-amino-5-[(4,4-difluoropiperidin-1-yl)methyl]pyrrolo[2,1-f][1,2,4]triazin-7-yl}-N-[(3R,4S)-4-fluoro-1-[4,4,4-trifluoro-3-hydroxy-3-(trifluoromethyl)butanoyl]pyrrolidin-3-yl]-2-methylbenzamide] it was 0.00081 µM. In the case of `Cc1ccc(-c2cc(C(F)(F)F)c3c(N)ncnn23)cc1C(=O)Nc1ccn(Cc2ccc(F)cc2)n1` [Example 1811, 5-(4-amino-5-(trifluoromethyl)pyrrolo[2,1-f][1,2,4]triazin-7-yl)-N-(1-(4-fluorobenzyl)-1H-pyrazol-3-yl)-2-methylbenzamide] it was 0.0032 µM. Turning to `Cc1ccc(-c2cc(C(F)(F)F)c3c(N)ncnn23)c(F)c1C(=O)N[C@@H]1CN(C(=O)C2CC(F)(F)C2)C[C@@H]1F` [Example 750, 3-[4-amino-5-(trifluoromethyl)pyrrolo[2,1-f][1,2,4]triazin-7-yl]-N-[(3R,4S)-1-(3,3-difluorocyclobutanecarbonyl)-4-fluoropyrrolidin-3-yl]-2-fluoro-6-methylbenzamide], the IC50 was determined as 0.0025 µM. For `CNCc1cc(-c2cnc(OC)c(C(=O)N[C@@H]3CN(C(=O)C4CC(F)(F)C4)C[C@@H]3F)c2)n2ncnc(N)c12` [Example 486, 5-{4-amino-5-[(methylamino)methyl]pyrrolo[2,1-f][1,2,4]triazin-7-yl}-N-[(3R,4S)-1-(3,3-difluorocyclobutanecarbonyl)-4-fluoropyrrolidin-3-yl]-2-methoxypyridine-3-carboxamide] the value was 0.022 µM.

The values are drawn from patent publication US11618753B2 (priority 2018, dated 2023).
